According to paper PMC4242493:
This is one part of the list. The list includes weakly bound sequences.

molecular target: MaxL homodimer (UniProt P61244); experiment: universal protein-binding microarray (PBM); conditions: PBS-based mixture, 10 nM His-tagged protein dimer, 2% milk, 200 ng/uL BSA, 50 ng/uL salmon testes DNA, 0.02% TX-100; detection with Alexa 488 anti-His …; high values mean tight binding; most listed sequences are background and not binding sites; double strand, one strand shown
Sequence of UniProt P61244 (P61244 whole entry): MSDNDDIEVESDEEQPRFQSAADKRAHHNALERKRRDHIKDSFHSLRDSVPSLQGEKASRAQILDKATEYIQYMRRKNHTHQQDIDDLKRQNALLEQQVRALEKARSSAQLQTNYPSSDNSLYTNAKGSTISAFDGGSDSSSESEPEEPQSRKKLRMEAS

Sequence	binding signal (normalized occupancy)
TACCAGAA	0.0769
GCCCAACA	0.0745
AGAGTGCA	0.0743
GGAATGCC	0.0756
GTCCGTAA	0.0709
GTAACCTA	0.0752
AATTAGAT	0.078
GCGCCGGA	0.0702
AAGATAAT	0.0764
AATGCCCG	0.0739
CAGAGGGA	0.0668
CCCCAAGA	0.0741
AAAAATAC	0.0817
CTACGCCC	0.0726
GTCGCAGA	0.0705
CGGGTCAG	0.0685
CGCTGGCC	0.0737
AGGTTGCA	0.0755
GATAACCA	0.0823
ACTAACGC	0.077
ACGGGTTG	0.0743
CGCAGGAG	0.0713
ACTCTTAC	0.0755
GGCTCTTA	0.0716

Sequence	binding signal (normalized occupancy)
CCTGCACA	0.0788
ATTCTCCC	0.0806
TAGGGTCA	0.0753
GATCTGTA	0.0768
CTCCATTA	0.0776
CCCCGGGG	0.0632
AACAATTA	0.0779
ATCACGAA	0.08
CCCCTCAG	0.0775
AGTCTCAG	0.0725
ATTAAAAT	0.0747
TAGCGCCA	0.0742
TCCGACAA	0.071
CGTTACGA	0.0742
ATCCGTTC	0.0707
ACCCGGCA	0.0737
TATCAGCA	0.0749
ATACCACC	0.0834
CAGGGAAC	0.0737
TGACCGAA	0.0768
ACGAAAAT	0.0764
GACCTGTA	0.0781
CTCATCCC	0.0745
ACCCACCG	0.0804

Sequence	binding signal (normalized occupancy)
ACAAGAGG	0.0752
ACTACCCC	0.0796
GCTTAAGA	0.0743
CGGGTACA	0.0783
ACCTCTGA	0.071
AACTCAGG	0.0684
ATACCGGA	0.0808
CTACATCC	0.0773
CCGTGACG	0.0782
GCATCACC	0.0774
GACTGGGC	0.0696
GGTATAAC	0.0766
ATAGGCTG	0.0707
ATAAAGTC	0.0808
CTACTAGC	0.0697
ATGGTAAC	0.0835
AGAGCGGC	0.0689
GGCGTTTA	0.0778
AACCTGAC	0.0788
TAAAGACA	0.0821
ACTCGTCT	0.0702
AGAACCAG	0.0721
AAACGGAT	0.0706
TCGATCGA	0.0683

Sequence	binding signal (normalized occupancy)
CCGCTAAA	0.07
CGTTTAAC	0.077
ATTTCCCA	0.0766
ACGCCCAG	0.0752
GCCACGCA	0.0915
ATATGGTC	0.0896
AACTGCGA	0.0693
AAAAGGAT	0.0697
AGCGCAAC	0.0679
ATATTGGG	0.0787
AGCTCGAT	0.0745
AAGGTATC	0.0767
GCTTTTAC	0.0756
CCTCCAGC	0.0706
CACAGTAA	0.0703
CCTTCGAA	0.0696
CCTTTGCG	0.0727
GGGCGCCC	0.0669
CAGACTAA	0.0682
CGATACGC	0.0818
GTGTAATA	0.0829
ATACGATC	0.0751
